From PMC12136788 come the findings set out here.

Some of the results follow.

T1: UNK ZnF1-3 (human, UniProt Q9C0B0 31-174)
T1 sequence: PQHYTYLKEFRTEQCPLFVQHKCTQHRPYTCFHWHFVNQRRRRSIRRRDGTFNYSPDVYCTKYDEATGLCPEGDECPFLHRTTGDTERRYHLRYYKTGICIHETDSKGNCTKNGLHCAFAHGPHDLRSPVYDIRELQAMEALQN

B1: 53051169_53051289_108_3pUTR_ENSMUSG00000026960_ENSMUST00000028336|mouse|control|control (ssRNA)
RNA: GGGAGUUCUACAGUCCGACGAUCCUUCGUCGCCUUCGCCCUCACCCCAGCUGUCCCCCUGAGUGUAGUCGGAAUACCCGGGCCGAGUCGCAGGGCCUGGGGUAACCUGACGGCGCCUCCGCGCGCCCGCAAACCUCCAACUCUCAACAGAGGAUUGAGCAUCA
B2: chrX:140365796:140365797:-_ENSMUSG00000031285_ENSMUST00000033642|mus_mus|mus_mus_mus_hu_False|1_8 (ssRNA)
RNA: GGGAGUUCUACAGUCCGACGAUCCUUCUCAUUACUCAGUGCCUGCAAGGUUCUGGUUCGGUAGAAGCUACAGUGGGCGCUGUGAGUGGGGCUAGGCAACCCAUUCAUCCGGGAGCCUCGCAUGUUCCUAGAUGCUUUGUCUCGCAACAGAGGAUUGAGCAUCA
B3: chr6:42975684:42975685:+_ENSG00000112640_ENST00000485511|hu_hu|FALSE|FALSE (ssRNA)
RNA: GGGAGUUCUACAGUCCGACGAUCACUGUCAAAUAGGUCUAGGAGAGCAAGUACAAACUUCUGGUCGAUGUACUUCUUGGCUAUGUUUGGCUGGAAAUCAGGAGACUCAAGGAAACGUAAGAAGAACUCAUACACGAGCUGGAGCAACAGAGGAUUGAGCAUCA
B4: chr2:148693158:148693159:-_ENSG00000115947_ENST00000542387|hu_hu|FALSE|FALSE (ssRNA)
RNA: GGGAGUUCUACAGUCCGACGAUCUGCCCACUGCCUCACAUCUGUAGGACAGUUGGGAUAUUUCUGCAGAGCAUUCAUAAUUUGAGUAUUAUCCAAAAGCAGUUUCAUCAGCUGGUACUCUCUCUGUGAAUUUCCUGAAGUUCUCAACAGAGGAUUGAGCAUCA
B5: chr7:7679991:7679992:-_ENSG00000106399_ENST00000396682|hu_hu|hu_hu_hu_mus_False|1_98 (ssRNA)
RNA: GGGAGUUCUACAGUCCGACGAUCUGGGAUGAAUCUUUUCCAGCCUCCCCACGAAGCACACGGGCCGGUCGAUAUACUGUGGUAACAUGCUGGCGUUGACGCGCGCUUUGGGGAGCUGCAUUAUGUCCUCCAUGAUUAUGGUCCCAACAGAGGAUUGAGCAUCA
B6: chr18:60570258:60570259:+_ENSG00000081913_ENST00000262719|hu_hu|motif|central (ssRNA)
RNA: GGGAGUUCUACAGUCCGACGAUCCUUAUUGUCUCGUAGGUCAAGCUGAGUAACAUGCUGUAGAAAGUCCACUUCAUCUGCGGUCAGCUUCCUAAUUACGUUCAACCUUAGAUCCACAUGUUUAAUGUGAGGCAUUUUUCUUAACAACAGAGGAUUGAGCAUCA

For the assay, the target named is T1, UNK ZnF1-3. Briefly: nsRBNS (natural sequence RNA bind-n-seq); RBNS binding buffer (assumed for nsRBNS): 25 mM Tris pH 7.5, 150 mM KCl, 3 mM MgCl2, 0.01% Triton X-100, 500 ug/ml BSA, 20 U/ml SUPERase-In, 4 C; UNK is unkempt and MSI1 is Musashi-1; names of the RNAs are library labels; protein concentration not given here; high values mean tight binding.
Regarding B1, the binding signal stood at 0.825 enrichment R. As for B2, the figure is 0.461 enrichment R; as for B3, 1.79 enrichment R. As for B4, the figure is 0.902 enrichment R. As for B5, the figure is 0.525 enrichment R; as for B6, 0.864 enrichment R.
